The full ranking holds about 33,000 sequences; the median of “E-score (-0.5 to 0.5)” is about -0.04, and the highest 2% start at about 0.36. The list shows a part of the results.
Molecular target: T1, Hmlalpha2 (UniProt P0CY09)
T1 sequence: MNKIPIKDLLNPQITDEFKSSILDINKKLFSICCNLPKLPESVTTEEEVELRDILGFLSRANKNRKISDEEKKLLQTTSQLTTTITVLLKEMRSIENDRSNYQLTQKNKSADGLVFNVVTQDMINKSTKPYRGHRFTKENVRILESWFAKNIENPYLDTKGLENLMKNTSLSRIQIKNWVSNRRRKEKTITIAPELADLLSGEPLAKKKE
Assay: PBM E-score (8-mer binding enrichment) (E-score (-0.5 to 0.5)); higher = stronger / more preferred TF binding; most listed sequences are background and not binding sites
Details: protein concentration: 200 nM; construct: GST-full length
In short: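 Masliner-normalised scans of fluorescent anti-GST signal were the basis for scoring. That signal came from GST-tagged yeast transcription factors applied at about 100-200 nM to double-stranded universal all-10-mer Agilent arrays on fresh or once-stripped slides. Each ungapped eight-base word, pooled with its reverse complement, received an E-score from the Universal PBM Analysis Suite.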

First: GTCCTAGA
Second: TGACGTCA
The “PBM E-score” value of the first is lower: -0.00893 for the first, 0.182 for the second.

First: AAACCATG
Second: ACCTTTCA
The “PBM E-score” value of the first is higher: 0.0233 for the first, -0.0854 for the second.

First: ACGCGGCG
Second: GACGATCC
The “PBM E-score” value of the first is higher: 0.172 for the first, -0.195 for the second.

First: CTATGGGA
Second: AAGTGCCC
The “PBM E-score” value of the first is higher: -0.161 for the first, -0.313 for the second.

Going from CGAAGACC to ATCCCCGG, the “PBM E-score” value falls from -0.173 to -0.195.

Going from AGTCGCCA to CTCTTAAG, the “PBM E-score” value rises from -0.351 to -0.112.

Compared with CTTTGAGC, ATGCCCAT is higher in “PBM E-score” value: -0.252 for the first, -0.0573 for the second.

Going from CATCGTCG to ACTGCACA, the “PBM E-score” value rises from -0.171 to 0.0941.

Compared with GGGAAGAA, ACACAAGG is higher in “PBM E-score” value: -0.0643 for the first, 0.278 for the second.

First: ATAGGTCG
Second: ATCCTGCG
The “PBM E-score” value of the first is lower: -0.253 for the first, 0.0722 for the second.

First: CATTATTC
Second: TCCTTCCA
The “PBM E-score” value of the first is higher: -0.0447 for the first, -0.213 for the second.

Compared with GCACCCGC, CTCACCGC is higher in “PBM E-score” value: -0.0473 for the first, -0.0262 for the second.

First: AGGGTGAT
Second: CGAATCGC
The “PBM E-score” value of the first is higher: -0.155 for the first, -0.169 for the second.

Going from AGACAGCT to AGTTAATA, the “PBM E-score” value rises from -0.108 to 0.271.

Going from CATGACCG to CTTGAGAC, the “PBM E-score” value falls from 0.0936 to -0.193.

Going from CACGAATG to ATAGGTAA, the “PBM E-score” value falls from 0.214 to 0.177.

Going from AGACCTCT to ACGCCTTC, the “PBM E-score” value rises from -0.148 to -0.131.

Going from ACTGCACT to CGCAAAAC, the “PBM E-score” value rises from -0.0202 to 0.153.

Going from ACCGGCGT to TCGCTACA, the “PBM E-score” value falls from 0.0886 to 0.0793.

First: ATGAATGC
Second: CTCATAAC
The “PBM E-score” value of the first is higher: 0.128 for the first, 0.00391 for the second.

First: ATGACAAT
Second: CGCCTCTC
The “PBM E-score” value of the first is higher: 0.142 for the first, -0.35 for the second.

Going from GAATGCTC to CAGGCTGA, the “PBM E-score” value rises from -0.225 to -0.194.

Compared with CCACCAAC, TAAAGACA is higher in “PBM E-score” value: -0.0648 for the first, 0.178 for the second.

Compared with ACATGAAC, ATCACAGG is lower in “PBM E-score” value: 0.366 for the first, 0.00303 for the second.

Compared with TGCTCCAA, CCATAGGC is lower in “PBM E-score” value: 0.0122 for the first, -0.22 for the second.

Going from ACGAGCTG to CTTCTGAC, the “PBM E-score” value falls from -0.0211 to -0.119.

Compared with CAAGCGCA, AAATTTAA is higher in “PBM E-score” value: 0.169 for the first, 0.222 for the second.

Compared with GAGCATAA, AATTTCTG is lower in “PBM E-score” value: -0.00322 for the first, -0.0339 for the second.

Compared with GTTCTGCA, ATACGTAG is higher in “PBM E-score” value: 0.104 for the first, 0.257 for the second.

Compared with ACTCAGCC, CCGTGCTA is higher in “PBM E-score” value: -0.256 for the first, 0.101 for the second.

Compared with GTATTCAC, TCTCGTAA is lower in “PBM E-score” value: 0.318 for the first, 0.256 for the second.

Compared with ATGCTACG, AAACGTAC is lower in “PBM E-score” value: 0.123 for the first, 0.0534 for the second.

First: CCCAGTCG
Second: CGCATTGA
The “PBM E-score” value of the first is lower: -0.221 for the first, 0.0737 for the second.

Compared with ATTCAGGG, CGGATGAC is lower in “PBM E-score” value: -0.063 for the first, -0.0916 for the second.

First: CTCTGAAC
Second: CGCTTGAC
The “PBM E-score” value of the first is lower: -0.193 for the first, -0.0157 for the second.

First: CGTATTAC
Second: GAGTTTAA
The “PBM E-score” value of the first is higher: 0.36 for the first, 0.0923 for the second.

First: GACCCTAA
Second: ACTTCTTC
The “PBM E-score” value of the first is lower: -0.195 for the first, 0.0141 for the second.

Compared with GAGCAAGC, AACTACAG is higher in “PBM E-score” value: -0.165 for the first, 0.0948 for the second.

Going from AAGGTCAC to CCCCTCTA, the “PBM E-score” value falls from 0.00487 to -0.0286.

Compared with CCTGCTGA, TCAGAAAA is lower in “PBM E-score” value: 0.0477 for the first, 0.00596 for the second.

Compared with AGGGGGAA, AATCTAGT is higher in “PBM E-score” value: -0.148 for the first, 0.0538 for the second.

First: AAGGTTGA
Second: CCGAACAA
The “PBM E-score” value of the first is higher: 0.0182 for the first, -0.0466 for the second.

First: CGTTCACA
Second: CTCAGCAG
The “PBM E-score” value of the first is higher: 0.213 for the first, -0.149 for the second.
